Experimental findings from article PMC2634294 (Bioorganic & medicinal chemistry letters, 2008) are described below.

One experiment relates to M. tuberculosis H37Rv (ATCC 27294). Nature of the experiment: Microplate Alamar Blue Assay. The following applies: M. tuberculosis H37Rv. On the technique in general: The colour change of resazurin is a common sign of viable cells or microbes.
For `C=C(CC[C@@H](C)[C@H]1CC[C@H]2[C@@H]3CC=C4C[C@@H](O)CC[C@]4(C)[C@H]3CC[C@]12C)C(C)C` [Compound 1, 24-methylene-cholesterol], the “inhibitory / antitubercular activity against M. tuberculosis (in words)” value is on record as “only marginal activity”.

The same experiment, now with this note: at ≤64 μg/mL.
Turning to `C=C(CC[C@@H](C)[C@H]1CC[C@H]2[C@@H]3CC=C4C[C@@H](O)CC[C@]4(C)[C@H]3CC[C@]12C)C(C)C` [Compound 1, 24-methylene-cholesterol], the “activity against Mtb (in words)” value was “none of the starting Δ^5-unsaturated steroids (1, 4, 6, 8, and 10) displays meaningful activity”.
As to `CC[C@H](CC[C@@H](C)[C@H]1CC[C@H]2[C@@H]3CC=C4C[C@@H](O)CC[C@]4(C)[C@H]3CC[C@]12C)C(C)C` [Compound 4, 24-α-ethyl-cholesterol], the “activity against Mtb (in words)” value was “none of the starting Δ^5-unsaturated steroids (1, 4, 6, 8, and 10) displays meaningful activity”.
`CC(C)CCC[C@@H](C)[C@H]1CC[C@H]2[C@@H]3CC=C4C[C@@H](O)CC[C@]4(C)[C@H]3CC[C@]12C` [Compound 6, cholesterol]: the “activity against Mtb (in words)” value is “none of the starting Δ^5-unsaturated steroids (1, 4, 6, 8, and 10) displays meaningful activity”.
For `CC(C)[C@@H](C)[C@]1(C)C[C@@H]1[C@@H](C)[C@H]1CC[C@H]2[C@@H]3CC=C4C[C@@H](O)CC[C@]4(C)[C@H]3CC[C@]12C` [Compound 8, Gorgosterol], the “activity against Mtb (in words)” value is “none of the starting Δ^5-unsaturated steroids (1, 4, 6, 8, and 10) displays meaningful activity”.
As to `CC(C)[C@@H](C)CC[C@@H](C)[C@H]1CC[C@H]2[C@@H]3CC=C4C[C@@H](O)CC[C@]4(C)[C@H]3CC[C@]12C` [Compound 10, 24-α-methyl-cholesterol], the “activity against Mtb (in words)” value was “none of the starting Δ^5-unsaturated steroids (1, 4, 6, 8, and 10) displays meaningful activity”.
